# Results published in PubChem BioAssay AID886 (National Center for Advancing Translational Sciences (NCATS), 2007).
# Hit rate of the full screen: of about 73,000 compounds, about 2,500 (3.4%) were called active. Inconclusive means that the source gave no clear call. Such entries were picked first, then a sample of the others. Calls come from the whole dose curve; as a rule, active = well fitted inhibition curve with a large enough effect; inconclusive = small, poorly fitted or top-dose-only effect; inactive = no such curve, though single readings can be large or run the other way. Where the call is inconclusive, the potency comes from a doubtful curve fit.
# Target: 3-hydroxyacyl-CoA dehydrogenase type-2 (Homo sapiens) (UniProt Q99714)
# Assay: qHTS Assay for Inhibitors of HADH2 (Hydroxyacyl-Coenzyme A Dehydrogenase, Type II); note: nearly all actives have a fitted effect of over 60% in size
# Conditions: recombinant HADH2, NADH fluorescence, beta-hydroxybutyryl-CoA; activity change, negative = inhibition: at 57.1 µM (top of the series)
# Summary of the method: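 E. coli-expressed His-tagged HADH2 tested at 20 nM in alkaline Tris buffer (pH 9.0); oxidation of 90 uM beta-hydroxybutyryl-CoA with 1 mM NAD+ tracked fluorimetrically for 4 min.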
# % is set by controls: 0 for no effect and ±100 for the full control effect; potency is the fitted concentration of half-maximal effect; tags give direction and shape of the fitted curve.
# UniProt Q99714, sequence (Q99714 whole entry, looked up): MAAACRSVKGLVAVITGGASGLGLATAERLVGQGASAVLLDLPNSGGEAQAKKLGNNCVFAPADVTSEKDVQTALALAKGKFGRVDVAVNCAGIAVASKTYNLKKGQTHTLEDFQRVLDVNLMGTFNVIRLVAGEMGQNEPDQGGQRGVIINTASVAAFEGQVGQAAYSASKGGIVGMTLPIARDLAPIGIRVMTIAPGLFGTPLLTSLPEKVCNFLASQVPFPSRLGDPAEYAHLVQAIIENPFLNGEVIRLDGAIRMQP
# UniProt Q99714, sequence (Q99714 whole entry, looked up): as above
Structure (SMILES),Potency,"activity change, negative = inhibition"
COC(=O)c1[nH]c2ccc(C)cc2c1NC(=O)CN1CCN(Cc2ccccc2)CC1,"inconclusive: 25.1 µM [inhibitor, single point]",
O=C1c2ccccc2NC(c2ccc(F)cc2)N1Cc1ccco1 (configuration not stated),"inconclusive: 39.8 µM [inhibitor, single point]",
N[C@]1(C(=O)O)CCc2cc(C(=O)O)ccc21,inactive,
COc1ccc(C(=O)N2CCC[C@@]3(CCN(C)C3)C2)cc1,,inactive: -2.07%
COc1ccc(OC)c(-c2cc(C(=O)NCc3cccs3)no2)c1,"inconclusive: 39.8 µM [inhibitor, single point]",
Cc1ccc(C2c3sc(=O)[nH]c3SC3C(=O)NC(=O)C32)cc1 (configuration not stated),"inconclusive: 25.1 µM [inhibitor, single point]",
COc1ccccc1N1CCN(C(=O)CSc2nnc(NC(=O)c3ccco3)s2)CC1,"inconclusive: 20 µM [inhibitor, single point]",
CC(OC(=O)c1ccccc1NCc1ccco1)C(=O)Nc1ncc(Cl)cc1Cl (configuration not stated),"inconclusive: 31.6 µM [inhibitor, single point]",
CCc1ccccc1NC(=O)c1cnc2n(c1=O)CCS2,"inconclusive: 25.1 µM [inhibitor, partial curve]",
O=C(Cc1cccs1)Nc1ccc(S(=O)(=O)Nc2ncccn2)cc1,"inconclusive: 39.8 µM [inhibitor, single point]",
CC(=O)N1CCC2(CC1)CC(=O)c1cc(OCC(=O)NCc3ccco3)ccc1O2,"inconclusive: 31.6 µM [inhibitor, single point]",
CNC(=O)c1cc2ccc(OC)cc2oc1=O,active: 3.16 µM,
CCS(=O)(=O)NCc1ccc2[nH]c3c(c2c1)CCCC3,"inconclusive: 31.6 µM [inhibitor, single point]",
CSc1nc2nc(C)cc(-c3ccccc3)n2n1,"inconclusive: 31.6 µM [inhibitor, single point]",
CC(C)c1[nH]nc2c1C(c1ccc(OC(=O)c3ccco3)cc1)C(C#N)=C(N)O2 (configuration not stated),"inconclusive: 25.1 µM [inhibitor, single point]",
CCn1nnc(NC(=O)c2cccc(-c3cc4ccccc4oc3=O)c2)n1,active: 25.1 µM,
Cc1c(C(=O)OCc2ccccc2)[nH]c2c1C(=O)CC(c1ccco1)C2 (configuration not stated),"inconclusive: 15.8 µM [inhibitor, partial curve]",
CC1(C(=O)N(CC(=O)NC2CCCC2)C2CCCC2)CC(=O)N=C2C=CC=CN21 (configuration not stated),active: 31.6 µM,
CC(=O)Nc1ccccc1-c1nc2ccc(C(=O)N3CCN(c4ccccc4)CC3)cc2[nH]c1=O,"inconclusive: 39.8 µM [inhibitor, single point]",
COc1cccc(-c2cncnc2Nc2ccccc2)c1,"inconclusive: 39.8 µM [inhibitor, single point]",
CCCCCNC(=O)c1ccc2c(=O)n(CC3CCCO3)c(=O)[nH]c2c1 (configuration not stated),"inconclusive: 39.8 µM [inhibitor, single point]",
C=CCn1c(N)c(C(=O)OCC(C)C)c2nc3ccccc3nc21,"inconclusive: 39.8 µM [inhibitor, single point]",
CNc1oc(-c2ccccc2)nc1C#N,active: 25.1 µM,
O=C(CSc1ncn[nH]1)c1ccccc1,"inconclusive: 39.8 µM [inhibitor, single point]",

Structure (SMILES),Potency,"activity change, negative = inhibition"
CC(=O)COc1ccc2c3c(c(=O)oc2c1C)CCCCC3,active: 12.6 µM,
CCCn1c(=O)c2c(ncn2C)n(CCC)c1=O,"inconclusive: 7.94 µM [inhibitor, single point]",
Nc1c(S(=O)(=O)c2cccc(Cl)c2)c2nc3ccccc3nc2n1/N=C/c1ccc(O)c(O)c1,active: 25.1 µM,
Cc1cccc2cc3c(N)c(C#N)sc3nc12,"inconclusive: 7.94 µM [inhibitor, partial curve]",
O=C(NO)c1ccccc1,"inconclusive: 31.6 µM [inhibitor, partial curve]",
CN(C)CCCNc1oc(-c2ccccc2)nc1C#N,active: 25.1 µM,
COC(=O)c1ccc(CSc2nnc(SCc3ccc(C(=O)OC)o3)s2)o1,"inconclusive: 39.8 µM [inhibitor, single point]",
COC(=O)C(C#N)c1nc2ccccc2nc1N1CCN(Cc2ccc3c(c2)OCO3)CC1 (configuration not stated),,inactive: 10.7%
CCOC(=O)c1ccc(NC(=O)c2c(O)c3ccccc3n(C)c2=O)cc1,,inactive: 23.7%
CCOC(=O)c1ccc(Nc2cc(C)nc(-c3ccccc3O)n2)cc1,"inconclusive: 31.6 µM [inhibitor, single point]",
CC(C)CCNC(=O)c1cccc(Cl)c1,,inactive: -1.89%
COc1cc(-c2nn3c(Cc4ccccc4)nnc3s2)cc(OC)c1OC,active: 10 µM,
COc1cc2c(cc1OC)C(c1ccc(N)cc1)=NNC(=O)C2,,inactive: 4.64%
Cc1cc(C)c(C)c(S(=O)(=O)Nc2ccccc2C(=O)NCCCn2ccnc2)c1C,"inconclusive: 15.8 µM [inhibitor, single point]",
O=C(Nc1nc(-c2cccs2)cs1)c1cccc(S(=O)(=O)N2CCCCCC2)c1,"inconclusive: 39.8 µM [inhibitor, single point]",
CCc1cccc(OCC(=O)Nc2ccc(S(=O)(=O)Nc3onc(C)c3C)cc2)c1,"inconclusive: 31.6 µM [inhibitor, single point]",
COc1ccc(N2CSC3=C(C#N)C(c4ccc(OC)c(OC)c4)CC(=O)N3C2)c(OC)c1 (configuration not stated),"inconclusive: 1 µM [inhibitor, full curve]",
c1ccc(CNc2cc(-c3ccoc3)ncn2)cc1,,inactive: -2.38%
CC1(C)Cc2c(C#N)c(NC3CCCCC3)nc(-c3ccco3)c2CO1,"inconclusive: 2 µM [inhibitor, full curve, poor fit]",
Cc1ccc(NC(=O)CSc2nnc(-c3ccc(S(=O)(=O)N4CCOCC4)cc3)n2C)cc1,,inactive: 24.1%
Nc1nc2ccccc2nc1N,"inconclusive: 10 µM [inhibitor, partial curve]",
Cc1ccc(-n2c(N)c(C(=O)N3CCN(C)CC3)sc2=S)cc1,active: 0.631 µM,
Cn1c(=O)[nH]c(=O)c2c1nc(SCC(O)CO)n2Cc1ccccc1Cl (configuration not stated),,inactive: -18.7%
